Measured values published in PMC9911399, “Two distinct binding modes provide the RNA-binding protein RbFox with extraordinary sequence specificity”.
Numbering of substitutions follows the chain as printed; changes in the protein carry UniProt numbers. This is one part of the list.

T1: RBFOX1 RRM RbFoxmut (Fox-RRM*) (Homo sapiens, UniProt Q9NWB1 109-208, R118D;E147R;N151S;E152T)
T1 sequence: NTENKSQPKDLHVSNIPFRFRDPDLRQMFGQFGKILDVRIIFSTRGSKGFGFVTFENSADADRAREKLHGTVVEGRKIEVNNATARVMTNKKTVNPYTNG

B1: UAACCCU (DNA:RNA)
RNA: GGGAGACCGGAAUUCAGAUUGUCCUAACCCUUUAAAUCCCGUCGUAGCCACCA
DNA 1: CAATCTGAATTCCGGTCTCCC
DNA 2: TGGTGGCTACGACGGGATT
B2: ACUGUGU (DNA:RNA)
RNA: B1 RNA with U25A, A26C, A27U, C28G, C29U, C30G
DNA 1: CAATCTGAATTCCGGTCTCCC
DNA 2: TGGTGGCTACGACGGGATT
B3: AGGAGGA (DNA:RNA)
RNA: GGGAGACCGGAAUUCAGAUUGUCCAGGAGGAUUAAAUCCCGUCGUAGCCACCA
DNA 1: CAATCTGAATTCCGGTCTCCC
DNA 2: TGGTGGCTACGACGGGATT
B4: GUGCAAC (DNA:RNA)
RNA: B3 RNA with A25G, G26U, A28C, G29A, G30A, A31C
DNA 1: CAATCTGAATTCCGGTCTCCC
DNA 2: TGGTGGCTACGACGGGATT
B5: CUAUGAG (DNA:RNA)
RNA: B3 RNA with A25C, G26U, G27A, A28U, G30A, A31G
DNA 1: CAATCTGAATTCCGGTCTCCC
DNA 2: TGGTGGCTACGACGGGATT
B6: GGUGUGA (DNA:RNA)
RNA: B3 RNA with A25G, G27U, A28G, G29U
DNA 1: CAATCTGAATTCCGGTCTCCC
DNA 2: TGGTGGCTACGACGGGATT
B7: CAGGUCG (DNA:RNA)
RNA: B1 RNA with U25C, A27G, C28G, C29U, U31G
DNA 1: CAATCTGAATTCCGGTCTCCC
DNA 2: TGGTGGCTACGACGGGATT
B8: CUGGCGC (DNA:RNA)
RNA: B3 RNA with A25C, G26U, A28G, G29C, A31C
DNA 1: CAATCTGAATTCCGGTCTCCC
DNA 2: TGGTGGCTACGACGGGATT
B9: AGCCCGU (DNA:RNA)
RNA: B3 RNA with G27C, A28C, G29C, A31U
DNA 1: CAATCTGAATTCCGGTCTCCC
DNA 2: TGGTGGCTACGACGGGATT
B10: UCUGAGU (DNA:RNA)
RNA: B1 RNA with A26C, A27U, C28G, C29A, C30G
DNA 1: CAATCTGAATTCCGGTCTCCC
DNA 2: TGGTGGCTACGACGGGATT
B11: UCAAUGA (DNA:RNA)
RNA: B3 RNA with A25U, G26C, G27A, G29U
DNA 1: CAATCTGAATTCCGGTCTCCC
DNA 2: TGGTGGCTACGACGGGATT
B12: CCGUAAU (DNA:RNA)
RNA: B3 RNA with A25C, G26C, A28U, G29A, G30A, A31U
DNA 1: CAATCTGAATTCCGGTCTCCC
DNA 2: TGGTGGCTACGACGGGATT
B13: ACCGAGU (DNA:RNA)
RNA: B3 RNA with G26C, G27C, A28G, G29A, A31U
DNA 1: CAATCTGAATTCCGGTCTCCC
DNA 2: TGGTGGCTACGACGGGATT
B14: UUAGAUU (DNA:RNA)
RNA: B1 RNA with A26U, C28G, C29A, C30U
DNA 1: CAATCTGAATTCCGGTCTCCC
DNA 2: TGGTGGCTACGACGGGATT
B15: GUUGCCU (DNA:RNA)
RNA: B1 RNA with U25G, A26U, A27U, C28G
DNA 1: CAATCTGAATTCCGGTCTCCC
DNA 2: TGGTGGCTACGACGGGATT
B16: GUACGUG (DNA:RNA)
RNA: B1 RNA with U25G, A26U, C29G, C30U, U31G
DNA 1: CAATCTGAATTCCGGTCTCCC
DNA 2: TGGTGGCTACGACGGGATT
B17: GCAUUGC (DNA:RNA)
RNA: B3 RNA with A25G, G26C, G27A, A28U, G29U, A31C
DNA 1: CAATCTGAATTCCGGTCTCCC
DNA 2: TGGTGGCTACGACGGGATT
B18: UUAAUCU (DNA:RNA)
RNA: B1 RNA with A26U, C28A, C29U
DNA 1: CAATCTGAATTCCGGTCTCCC
DNA 2: TGGTGGCTACGACGGGATT
B19: ACUAUAA (DNA:RNA)
RNA: B3 RNA with G26C, G27U, G29U, G30A
DNA 1: CAATCTGAATTCCGGTCTCCC
DNA 2: TGGTGGCTACGACGGGATT
B20: AACUACG (DNA:RNA)
RNA: B1 RNA with U25A, A27C, C28U, C29A, U31G
DNA 1: CAATCTGAATTCCGGTCTCCC
DNA 2: TGGTGGCTACGACGGGATT
B21: AGAUCAC (DNA:RNA)
RNA: B3 RNA with G27A, A28U, G29C, G30A, A31C
DNA 1: CAATCTGAATTCCGGTCTCCC
DNA 2: TGGTGGCTACGACGGGATT
B22: UAGCCGU (DNA:RNA)
RNA: B1 RNA with A27G, C30G
DNA 1: CAATCTGAATTCCGGTCTCCC
DNA 2: TGGTGGCTACGACGGGATT
B23: UGAUCCU (DNA:RNA)
RNA: B1 RNA with A26G, C28U
DNA 1: CAATCTGAATTCCGGTCTCCC
DNA 2: TGGTGGCTACGACGGGATT
B24: UACGUAC (DNA:RNA)
RNA: B1 RNA with A27C, C28G, C29U, C30A, U31C
DNA 1: CAATCTGAATTCCGGTCTCCC
DNA 2: TGGTGGCTACGACGGGATT
B25: CGACGAA (DNA:RNA)
RNA: B3 RNA with A25C, G27A, A28C, G30A
DNA 1: CAATCTGAATTCCGGTCTCCC
DNA 2: TGGTGGCTACGACGGGATT
B26: CCCAGGA (DNA:RNA)
RNA: B3 RNA with A25C, G26C, G27C
DNA 1: CAATCTGAATTCCGGTCTCCC
DNA 2: TGGTGGCTACGACGGGATT
B27: UGUUGAC (DNA:RNA)
RNA: B3 RNA with A25U, G27U, A28U, G30A, A31C
DNA 1: CAATCTGAATTCCGGTCTCCC
DNA 2: TGGTGGCTACGACGGGATT
B28: CAGACCC (DNA:RNA)
RNA: B1 RNA with U25C, A27G, C28A, U31C
DNA 1: CAATCTGAATTCCGGTCTCCC
DNA 2: TGGTGGCTACGACGGGATT
B29: CCGAUCG (DNA:RNA)
RNA: B3 RNA with A25C, G26C, G29U, G30C, A31G
DNA 1: CAATCTGAATTCCGGTCTCCC
DNA 2: TGGTGGCTACGACGGGATT
B30: AAGGCAC (DNA:RNA)
RNA: B3 RNA with G26A, A28G, G29C, G30A, A31C
DNA 1: CAATCTGAATTCCGGTCTCCC
DNA 2: TGGTGGCTACGACGGGATT
B31: AACAACG (DNA:RNA)
RNA: B3 RNA with G26A, G27C, G29A, G30C, A31G
DNA 1: CAATCTGAATTCCGGTCTCCC
DNA 2: TGGTGGCTACGACGGGATT

target: T1, RBFOX1 RRM RbFoxmut (Fox-RRM*); test: EMSA; HiTS-Eq, 1 nM pool, 10 min; buffer printed only for the single-RNA assays: 10 mM Tris pH 7.5, 150 mM NaCl, 3.4 mM EDTA, 0.001% NP-40, 30 C; details: tags: His6 N-terminal (pET28a); label: 5' 32P
Procedure, shortened: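 Purified wild-type or mutant RbFox RRM at increasing concentrations was equilibrated with 1 nM of 5′-radiolabelled RNA carrying 7 randomized nucleotides for 10 min in 50 µL. Unbound RNA was separated by 8% native PAGE and sequenced. Relative association constants came from read-count changes of each RNA species compared with the control reaction, normalised to the cognate motif.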

Binder	binding signal
B1	0.102 KA relative to UGCAUGU
B2	0.165 KA relative to UGCAUGU
B3	0.084 KA relative to UGCAUGU
B4	0.073 KA relative to UGCAUGU
B5	0.107 KA relative to UGCAUGU
B6	0.112 KA relative to UGCAUGU
B7	0.135 KA relative to UGCAUGU
B8	0.095 KA relative to UGCAUGU
B9	0.111 KA relative to UGCAUGU
B10	0.0662 KA relative to UGCAUGU
B11	0.0906 KA relative to UGCAUGU
B12	0.0896 KA relative to UGCAUGU
B13	0.0972 KA relative to UGCAUGU
B14	0.0873 KA relative to UGCAUGU
B15	0.0842 KA relative to UGCAUGU
B16	0.188 KA relative to UGCAUGU

Binder	binding signal
B17	0.134 KA relative to UGCAUGU
B18	0.062 KA relative to UGCAUGU
B19	0.13 KA relative to UGCAUGU
B20	0.107 KA relative to UGCAUGU
B21	0.0603 KA relative to UGCAUGU
B22	0.123 KA relative to UGCAUGU
B23	0.0524 KA relative to UGCAUGU
B24	0.0929 KA relative to UGCAUGU
B25	0.0851 KA relative to UGCAUGU
B26	0.0754 KA relative to UGCAUGU
B27	0.105 KA relative to UGCAUGU
B28	0.0621 KA relative to UGCAUGU
B29	0.11 KA relative to UGCAUGU
B30	0.0868 KA relative to UGCAUGU
B31	0.0576 KA relative to UGCAUGU
